Experimental findings from the BET-seq Pho4 binding data (Le et al. 2018) are described below.

Some of the results follow. The energies were worked out here from pooled read counts, against the library average; single values are noisy.

In the assay the target is T1, Pho4 (S. cerevisiae) (UniProt P07270).
T1 sequence: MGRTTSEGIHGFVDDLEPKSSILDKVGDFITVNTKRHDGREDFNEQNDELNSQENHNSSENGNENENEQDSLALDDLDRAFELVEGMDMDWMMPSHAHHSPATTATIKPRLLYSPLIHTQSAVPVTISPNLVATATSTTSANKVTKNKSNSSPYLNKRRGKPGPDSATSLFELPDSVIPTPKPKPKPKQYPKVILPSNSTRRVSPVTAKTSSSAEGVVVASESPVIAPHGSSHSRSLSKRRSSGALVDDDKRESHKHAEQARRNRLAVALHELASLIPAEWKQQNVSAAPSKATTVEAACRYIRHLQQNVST
Briefly: relative binding free energy (BET-seq); higher = weaker binding. To be noted: reference: library average.
Consider GGCTTCACGTGGGGCA, for which the “relative binding free energy” value is 0.06 kcal/mol. As for GTTTACACGTGAATAA, the figure is 0.53 kcal/mol; as for ATTGGCACGTGTAAGA, 0.19 kcal/mol. On to TGGACCACGTGGGAGG, for which the “relative binding free energy” value is -0.24 kcal/mol.

On to GGATGCACGTGTAGTA, for which the “relative binding free energy” value was -0.1 kcal/mol. On to TTTTTCACGTGGCGTG, for which the “relative binding free energy” value was determined as 0.13 kcal/mol.

With TGTAGCACGTGTCATG, the “relative binding free energy” value was -0.15 kcal/mol. As for TGGGACACGTGGGTCC, the figure is 0.01 kcal/mol. Regarding TTAGTCACGTGCGAGT, the “relative binding free energy” value was 0.13 kcal/mol.

As for TGCAGCACGTGGGTTT, the “relative binding free energy” value was -0.08 kcal/mol. As for TGGGCCACGTGAGAGT, the figure is 0.14 kcal/mol. As for GTTTCCACGTGGGAAG, the figure is 0.22 kcal/mol; as for ATGTTCACGTGTAAGG, 0.24 kcal/mol; as for TCTTTCACGTGCAGGG, 0.29 kcal/mol. For TCGGTCACGTGTGTAT, the “relative binding free energy” value turned out to be 0.17 kcal/mol.

Take GTTGGCACGTGAACAT: the “relative binding free energy” value was 0.19 kcal/mol.

Turning to AGGCGCACGTGCCGGG, the “relative binding free energy” value is -0.18 kcal/mol. As for ATATTCACGTGGCTTT, the figure is 0.08 kcal/mol.

CATTTCACGTGGGTGA: the “relative binding free energy” value was determined as 0.07 kcal/mol. As for GGGGTCACGTGAGGTA, the figure is 0.29 kcal/mol.

Turning to GCTTTCACGTGGTATT, the “relative binding free energy” value stood at 0.43 kcal/mol. In the case of GAGGGCACGTGTCATG, the “relative binding free energy” value is -0.09 kcal/mol. For CGAGGCACGTGGGAGG the value was -0.07 kcal/mol; for TTATTCACGTGATAGG, 0.33 kcal/mol. For AGTTGCACGTGCCGGG the value was -0.13 kcal/mol; for TGATTCACGTGGTGAT, 0.26 kcal/mol.

Consider ATTTGCACGTGCTGTT, for which the “relative binding free energy” value is -0.04 kcal/mol. With AGGAACACGTGGTTCT, the “relative binding free energy” value was 0.09 kcal/mol. On to ATCGGCACGTGAGTGT, for which the “relative binding free energy” value was 0.27 kcal/mol.

As for TGATGCACGTGTTGCA, the “relative binding free energy” value turned out to be 0.01 kcal/mol. As for GTCGGCACGTGCTGTG, the “relative binding free energy” value was -0.05 kcal/mol.

GTGGGCACGTGCGGTG: the “relative binding free energy” value was -0.04 kcal/mol. For TTGGGCACGTGATAGT the value was 0.03 kcal/mol; for GGAAGCACGTGGTTTG, -0.05 kcal/mol; for GGTCTCACGTGGGTTG, 0.04 kcal/mol. As to CTGGGCACGTGTCGGG, the “relative binding free energy” value was -0.01 kcal/mol. For the sequence TTTGACACGTGCGGGT, the “relative binding free energy” value came out at 0.04 kcal/mol. As to TACGGCACGTGTAGTT, the “relative binding free energy” value was 0.07 kcal/mol.

On to GTGATCACGTGATTAT, for which the “relative binding free energy” value is 0.3 kcal/mol. Turning to TTTATCACGTGATCGT, the “relative binding free energy” value is 0.21 kcal/mol. As to AGCAGCACGTGTGAGG, the “relative binding free energy” value is -0.05 kcal/mol.

For the sequence GCTAGCACGTGTTGGA, the “relative binding free energy” value came out at 0.07 kcal/mol. With AAAGGCACGTGAAGAA, the “relative binding free energy” value came to 0.38 kcal/mol. On to GGTTTCACGTGTTTGC, for which the “relative binding free energy” value turned out to be 0.34 kcal/mol. With TAATGCACGTGTTATA, the “relative binding free energy” value was -0.17 kcal/mol. Consider GTAGTCACGTGCAGTT, for which the “relative binding free energy” value was 0.02 kcal/mol. As for GATTCCACGTGTGGTA, the figure is 0.24 kcal/mol; as for TACTTCACGTGGAGGT, 0.17 kcal/mol; as for TGCTGCACGTGGGGGG, -0.17 kcal/mol. As for TAATTCACGTGGTTAG, the figure is 0.29 kcal/mol. For the sequence TAGGGCACGTGACGCT, the “relative binding free energy” value is 0.1 kcal/mol. As to GTGGCCACGTGTGAGG, the “relative binding free energy” value turned out to be 0.02 kcal/mol. As for GTGTTCACGTGCTTAG, the figure is 0.15 kcal/mol. For the sequence TACAGCACGTGAGGTT, the “relative binding free energy” value amounted to 0.21 kcal/mol.

Turning to CGGTTCACGTGAAGTT, the “relative binding free energy” value turned out to be 0.49 kcal/mol. TGTATCACGTGGGAGC: the “relative binding free energy” value turned out to be 0.1 kcal/mol. Consider GTAGGCACGTGGAAAT, for which the “relative binding free energy” value is 0.03 kcal/mol. As for TGAAGCACGTGATGAG, the figure is -0.04 kcal/mol; as for ATGATCACGTGTGTTG, 0.08 kcal/mol; as for TATGTCACGTGAGGTG, 0.24 kcal/mol. As for GGGAACACGTGGGCCG, the “relative binding free energy” value was -0.02 kcal/mol.

Consider AGAGTCACGTGTTGCG, for which the “relative binding free energy” value turned out to be 0.03 kcal/mol. For AGAGTCACGTGTGTGA the value was 0.15 kcal/mol; for AGCGTCACGTGGTAGT, -0.13 kcal/mol. For TGCAACACGTGATGGT the value was 0.13 kcal/mol. Consider ACAGACACGTGAGGGG, for which the “relative binding free energy” value was 0.2 kcal/mol.

Turning to GCTTGCACGTGTTATG, the “relative binding free energy” value is 0.13 kcal/mol. As for GTTGTCACGTGAGAGG, the figure is 0.34 kcal/mol. For ATTTACACGTGGATTG, the “relative binding free energy” value was 0.01 kcal/mol.

Take CGTGGCACGTGGCGTG: the “relative binding free energy” value is -0.22 kcal/mol. Turning to TATTGCACGTGAGAGG, the “relative binding free energy” value was -0.01 kcal/mol.

Consider TCGGACACGTGGTTTG, for which the “relative binding free energy” value was -0.01 kcal/mol. Regarding GTTATCACGTGGTGAA, the “relative binding free energy” value was 0.11 kcal/mol. As for GACGACACGTGTAGGT, the “relative binding free energy” value worked out at 0.09 kcal/mol. As to GCGGTCACGTGAAGGA, the “relative binding free energy” value stood at 0.34 kcal/mol. As for GGAAGCACGTGAGGGA, the figure is 0.06 kcal/mol; as for AAGTACACGTGCGGTG, 0.1 kcal/mol. As for TAATGCACGTGCGGGG, the figure is 0 kcal/mol. GTTTTCACGTGATCGG: the “relative binding free energy” value is 0.49 kcal/mol. As for AGTGTCACGTGGCGGC, the figure is -0.01 kcal/mol. Turning to GTAGTCACGTGGCGGC, the “relative binding free energy” value stood at 0.18 kcal/mol. For TGTAACACGTGGGAAT the value was 0.09 kcal/mol.

With TTCATCACGTGATTTT, the “relative binding free energy” value is 0.17 kcal/mol. For AGTATCACGTGAGTGT the value was 0.22 kcal/mol; for GGTAACACGTGATGTG, 0.27 kcal/mol. For GAATTCACGTGTGTTG, the “relative binding free energy” value is 0.18 kcal/mol. As for TATGTCACGTGTAGGG, the figure is 0.22 kcal/mol.

CGGATCACGTGACGGG: the “relative binding free energy” value came to 0.49 kcal/mol. For TTTTTCACGTGGTCTT the value was 0.24 kcal/mol.

As to GGTAACACGTGACGTG, the “relative binding free energy” value was 0.33 kcal/mol. For TGGAGCACGTGGACTG the value was -0.04 kcal/mol; for GGTGCCACGTGGGATG, -0.12 kcal/mol. For TGTGCCACGTGAGGTG the value was 0.13 kcal/mol; for CGAGGCACGTGGTTTA, -0.15 kcal/mol. For AGTGACACGTGTTATC the value was 0.06 kcal/mol; for ATGTACACGTGGTGCA, -0.02 kcal/mol. Consider GGCTACACGTGTGTGG, for which the “relative binding free energy” value is 0.07 kcal/mol. As to CGTGGCACGTGAGTTA, the “relative binding free energy” value was 0.08 kcal/mol.

For the sequence GTTGGCACGTGTTCAC, the “relative binding free energy” value was 0.08 kcal/mol.

For TGAATCACGTGTCGGG, the “relative binding free energy” value was determined as 0.13 kcal/mol. As for TGACTCACGTGTTTGT, the figure is 0.16 kcal/mol. In the case of GATGTCACGTGTTGGA, the “relative binding free energy” value is 0.07 kcal/mol. Turning to AGGAGCACGTGACTGG, the “relative binding free energy” value was found to be 0 kcal/mol. As for GTTGACACGTGTAAAG, the figure is 0.13 kcal/mol; as for GTGCCCACGTGGGGGG, -0.25 kcal/mol. As for TTGATCACGTGAATGA, the figure is 0.52 kcal/mol; as for GGGTGCACGTGAGGTA, 0.13 kcal/mol. For TTGTGCACGTGCGATA the value was -0.14 kcal/mol. TAATGCACGTGCGTGG: the “relative binding free energy” value was -0.21 kcal/mol. As for GGGTTCACGTGAGATT, the figure is 0.49 kcal/mol; as for GATTACACGTGTGCTT, 0.1 kcal/mol.

Turning to TGTCTCACGTGGGTGG, the “relative binding free energy” value stood at 0.06 kcal/mol. As for ACGGGCACGTGGGTTG, the “relative binding free energy” value is -0.28 kcal/mol. As for AGTAGCACGTGATCTG, the figure is 0.02 kcal/mol; as for CAGGTCACGTGTTAGA, 0.12 kcal/mol.
